The source of these data is PubChem BioAssay AID1508623 (National Center for Advancing Translational Sciences (NCATS), 2021).

Among all 48,000 compounds or so, about 450 (0.94%) were called active. Inconclusive results (about 19%) are left out. Calls follow the shape of the dose curve; as a rule, active = well fitted inhibition curve with a large enough effect; inconclusive = small, poorly fitted or top-dose-only effect; inactive = no such curve, though single readings can be large or run the other way. This is one part of the list.

This assay in a line: Primary qHTS for Identification of Small Molecule Inhibitors of Huntingtin Promoter Activity. Also: nearly all actives have a fitted effect of over 50% in size. The following applies: HEK293 HTT promoter firefly luciferase reporter (activity 0% = vehicle and -100% = no light), 24 h; series mostly up to 57.5 µM; activity change, negative = inhibition: at the top concentration. Summed up: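 HEK293 cells carrying firefly luciferase reporters were seeded at 2,500 per well in Opti-MEM and cultured for 24 h. They were then treated with compounds at up to 57.5 uM final for 24 h at 37 degrees C before Dual-Glo luminescence readout.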
On to `Cc1ccc(-c2[nH]c3c(c2-c2c(-n4cccc4)n(C)c(=O)[nH]c2=O)c(=O)[nH]c(=O)n3C)cc1`, for which the “activity change, negative = inhibition” value was inactive: -11%. The value for `CCOC(=O)c1c(C)oc2nc(C)nc(N3CCN(c4ccccc4F)CC3)c12` was inactive: 0.143%; that for `Cc1ccc2[nH]cc(S(=O)(=O)c3ccc(C)c(C)c3)c(=O)c2c1` was inactive: -17.9%; that for `Cc1ccc(F)cc1NC(=O)CCc1c(C)nn(-c2ccc(N3CCOCC3)nn2)c1C` was inactive: -13.6%. The value for `CCN(CC)CCNc1ccc(CO)c2sc3ccccc3c(=O)c12` was inactive: -27.6%. The value for `Cc1ccc(/C=C/c2onc(C)c2S(=O)(=O)N2CCC(C(=O)N3CCOc4ccc(C)cc43)CC2)cc1` was inactive: -32.6%. Consider `COc1ccc(NC(=O)CCS(=O)(=O)c2nc(-c3ccc4c(c3)OCO4)cc(C(F)(F)F)n2)cc1`, for which the “activity change, negative = inhibition” value is inactive: 27.5%. Next, `CSc1ccc(C2CC(=O)Oc3c2c(=O)n(C)c2ccccc32)cc1` (stereo unspecified): inactive: -16.4%.

For `COc1ccc(-c2cc(C(=O)Oc3ccc(C)cc3)c3cc(C)ccc3n2)cc1`, the “activity change, negative = inhibition” value was inactive: 2.78%. The value for `CCOc1ccc2nc3cc(N)ccc3c(N)c2c1` was inactive: -19%; that for `Cc1ccc(-c2nnc(Nc3ccc(OC(F)(F)Cl)cc3)c3ccccc23)cc1S(=O)(=O)NC(C)(C)CO` was inactive: -26.6%; that for `N[C@@H](Cc1ccc(O)cc1)C(=O)O` was inactive: -4% [at 11.5 µM]. `CCCCn1c(=N)c(S(=O)(=O)c2ccc(C)cc2)cc2c(=O)n3cc(C)ccc3nc21`: the “activity change, negative = inhibition” value is inactive: 1.38%. In the case of `O=C(Nc1ccc(-c2nc3cc(NC(=O)c4ccc(F)cc4)ccc3o2)cc1)c1ccc(F)cc1`, the “activity change, negative = inhibition” value is inactive: 45.2%. Turning to `O=C(COc1ccc(Cl)cc1)N1CCN(Cc2ccc3c(c2)OCO3)CC1`, the “activity change, negative = inhibition” value is inactive: -17.3%. Next, `CCc1nn2c(=O)cc(COC(=O)c3ccc(NC(=O)CCc4ccccc4)cc3)nc2s1`: inactive: -15.4%; `O=C(COc1ccccc1)N(Cc1cccnc1)c1nc2c(F)cccc2s1`: inactive: -12.8%; `Nc1ccc(NC(=O)c2cccc(C(=O)Nc3ccc(N)cc3Cl)c2)c(Cl)c1`: inactive: -20.5%. Consider `CCc1nc(SC)ncc1C(=O)N1CCN(c2cc(Cl)ccc2C)CC1`, for which the “activity change, negative = inhibition” value is inactive: -17.1%. The value for `Cc1nn(C(C)C(=O)Nc2ccc(C(C)C)cc2)c(=O)c2c1sc1ccccc12` (stereo unspecified) was inactive: -8.26%.

In the case of `CC(NC(=O)C1CCN(S(=O)(=O)c2ccccc2)CC1)c1ccccc1` (stereo unspecified), the “activity change, negative = inhibition” value was inactive: -23.1%. The value for `COc1cc(/C=C(\C#N)c2nc3ccccc3[nH]2)ccc1OCc1ccc(F)cc1` was inactive: -24.8%; that for `CCCN(CCC)CCCNC(=O)c1cnn(-c2ccc(F)cc2)c1-n1cccc1` was inactive: -27.3%; that for `Cc1cccc(-c2nn3c(=O)cc(CN4CCN(C(=O)c5ccccc5Br)CC4)nc3s2)c1` was inactive: -10.5%. `CCCn1c2ccccc2c2cnn(CC(=O)NCC3CCN(Cc4ccc(F)cc4)CC3)c(=O)c21`: the “activity change, negative = inhibition” value is inactive: -9.88%.

Take `CN(Cc1cnc2nc(N)nc(N)c2n1)c1ccc(C(=O)N[C@@H](CCC(=O)O)C(=O)O)cc1`: the activity change, negative = inhibition entry was “inactive”.

On to `COc1ccccc1CNc1nc(-c2ccco2)nn1C(=O)c1cc(OC)c(OC)c(OC)c1`, for which the “activity change, negative = inhibition” value is inactive: 39.5%. The value for `Cc1ccccc1CNC(=O)C1=Cc2ccccc2OC1` was inactive: 15.9%; that for `CCC(=O)C1=C(c2ccc(OC)c(OC)c2)N(C(=O)CC)n2c(CC)nnc2S1` was inactive: -19.8%; that for `Cc1ccc(NC(=O)c2c(NC(=O)Cc3ccccc3)sc3c2CCCC3)cc1` was inactive: -19.7%. Next, `CC(=O)c1cccc(NC(=O)Cn2c(=O)oc3cc(S(=O)(=O)N4CCCC4)ccc32)c1`: inactive: -32.4%. Next, `CC(=O)Nc1ccc(NC(=O)CCSCCc2ccccn2)cc1`: inactive: -5.91%; `CN(C)c1ccc(-c2nnc3n(Cc4ccccc4)c(=O)c4ccccc4n23)cc1`: inactive: -13.2%; `CN(C)c1ccc(CNC(=O)c2ccc(NC(=O)N3CCCCc4ccccc43)cc2)cc1`: inactive: -10.3%.

As for `COc1ccc(-n2c(SCC(=O)Nc3cccc(C)c3C)nc3c([nH]c4ccccc43)c2=O)cc1`, the “activity change, negative = inhibition” value was inactive: -4.48%.

Regarding `Cc1ccc2oc(=O)c3cc(C(=O)N4CCN(c5ccccc5F)CC4)sc3c2c1`, the “activity change, negative = inhibition” value is inactive: 2.87%. Next, `CCc1ccccc1NC(=O)C1CCN(c2cnccn2)CC1`: inactive: -15.1%. On to `CC(=O)c1nnn(-c2ccc(C)cc2Cl)c1C`, for which the “activity change, negative = inhibition” value is inactive: -15.3%. `CC(=O)c1ccc(Nc2ccc3cc(S(=O)(=O)N4CCCC4)ccc3n2)cc1`: the “activity change, negative = inhibition” value is inactive: 0%. Next, `O=C(CCn1cnnn1)Nc1cc(C(F)(F)F)cc(C(F)(F)F)c1`: inactive: -27.4%. The value for `COc1cc(NC(=O)CSc2nccn2C)cc(OC)c1OC` was inactive: -25.7%; that for `COc1ccc2c(c1)c1c(c(=O)n(-c3ccc(OC)c(OC)c3)c(=O)n1Cc1ccccc1F)n2C` was inactive: -4.66%; that for `CC(C)CCn1nnc2sc(-c3ccccc3)cc2c1=O` was inactive: 40.4%. Next, `CCCCSCCCNC(=O)c1cn(C)c2ccc(S(=O)(=O)N3CCCCCC3)cc2c1=O`: inactive: -11.3% [at 11.5 µM]; `COc1cc(OC)c(NC(=O)c2nn(-c3ccc(C)cc3)c(=O)c3c2c2ccccc2n3C)cc1Cl`: inactive: -5.9%. Consider `O=C(Nc1cccc(C(=O)N2CCN(c3cccc(Cl)c3)CC2)c1)c1nsc2ccccc12`, for which the “activity change, negative = inhibition” value was inactive: -5.8%. On to `O=C(NCc1ccccc1Cl)c1ccc(Cn2c(SCc3ccccc3)nc3cccnc32)cc1`, for which the “activity change, negative = inhibition” value is inactive: -24.8%.

Regarding `CCc1ccccc1NC(=O)c1ccc2c(SCC(=O)O)c3c(nc2c1)CCC3`, the “activity change, negative = inhibition” value was inactive: 0.396%. With `Cc1ccccc1Cn1c2ccccc2c2cnn(CC(=O)NCC(C)c3ccccc3)c(=O)c21` (stereo unspecified), the “activity change, negative = inhibition” value was inactive: 0%. Next, `CSc1ccc(CCNC(=O)C(C)n2nc(C)c3sc4ccccc4c3c2=O)cc1` (stereo unspecified): inactive: -5.41%; `CCOc1ccc(C2c3c(oc4ccc(C)cc4c3=O)C(=O)N2CCCN(C)C)cc1` (stereo unspecified): inactive: 11.5%. Next, `CCOC(=O)C1CCN(C(=O)c2ccc(NC(=O)c3nsc4ccccc34)cc2)CC1`: inactive: 14.1%; `Cc1cc(C(=O)NCc2cccc(Br)c2)c2c(C)nn(-c3ccccc3)c2n1`: inactive: -9.53%.

As to `CC(=O)N1c2ccc(S(=O)(=O)NCC3CCC(C(=O)Nc4ccc(C)c(C)c4)CC3)cc2CC1C` (stereo unspecified), the “activity change, negative = inhibition” value is inactive: -2.34%. Next, `COCCCn1c(=N)c(C(=O)NCc2cccnc2)cc2c(=O)n3cc(C)ccc3nc21`: inactive: 1.94%. The value for `COc1ccc(OC)c(Nc2ncnc3c2nc2n3CCCC2)c1` was inactive: 8.25%; that for `CCOc1ccc(NC(=O)c2nc3nc(C)cc(C(F)F)n3n2)cc1` was inactive: -0.747%. With `Cc1cc(C)c2c(-n3cccc3)c(C(=O)NCc3cccc(F)c3)sc2n1`, the “activity change, negative = inhibition” value was inactive: -11.3%. For `CCc1nnc(SCc2ccc(OC)cc2)c2cc3sc(C)cc3n12`, the “activity change, negative = inhibition” value was inactive: 4.2%. Next, `Cc1cc(C)c(NC(=O)CCn2c(=O)c3cccn3c3ccccc32)c(C)c1`: inactive: 3.55%; `CCN1CCN(C(c2ccc(SC)cc2)c2c(O)cc(C)n(Cc3ccco3)c2=O)CC1` (stereo unspecified): inactive: -7.8%.
